Experimental data from the BET-seq Pho4 binding data (Le et al. 2018).
This is one part of the list. Values were computed here from the reads of four pooled replicates and scatter widely.

biological target: T1, Pho4 (S. cerevisiae) (UniProt P07270); assay: relative binding free energy (BET-seq); higher = weaker binding; settings: reference: library average
T1 sequence: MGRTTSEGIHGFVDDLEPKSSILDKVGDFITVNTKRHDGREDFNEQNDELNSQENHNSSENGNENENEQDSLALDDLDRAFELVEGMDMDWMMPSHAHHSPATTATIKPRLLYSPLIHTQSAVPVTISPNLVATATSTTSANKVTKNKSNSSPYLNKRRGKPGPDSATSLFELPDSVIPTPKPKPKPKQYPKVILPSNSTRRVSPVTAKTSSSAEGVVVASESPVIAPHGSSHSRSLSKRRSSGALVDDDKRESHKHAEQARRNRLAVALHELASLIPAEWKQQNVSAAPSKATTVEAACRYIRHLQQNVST

| Sequence | relative binding free energy [kcal/mol] |
| --- | --- |
| AATAGCACGTGGTATG | -0.15 |
| ATCGTCACGTGGATGG | 0.01 |
| AGTGTCACGTGGGTGG | -0.06 |
| AAGGGCACGTGTAGGC | -0.03 |
| TCGGACACGTGGTTTT | 0.01 |
| GGGGACACGTGTTGGA | -0.01 |
| GCGTTCACGTGGAGGG | 0.24 |
| CATCGCACGTGTAGGG | 0.15 |
| CTGTTCACGTGATTAG | 0.18 |
| GGGAGCACGTGGTGGG | -0.16 |
| GATTGCACGTGGAGGG | 0.05 |
| TTGCGCACGTGGATTT | 0.05 |
| GTCGGCACGTGATTAT | 0.1 |
| AAGTACACGTGTTGGT | 0.1 |
| CTTTGCACGTGGTGGG | -0.15 |
| AGGTGCACGTGATCGT | 0.03 |
| TCTGTCACGTGCTTGT | 0 |
| TAATTCACGTGGAAAT | 0.33 |
| CTTGGCACGTGTCTGT | -0.1 |
| GATTCCACGTGTGGGC | 0.28 |
| AGTTACACGTGTTTAG | 0.01 |
| ACTTGCACGTGGGGGT | -0.25 |
| TGGGTCACGTGGCTCG | -0.07 |
| GGGCACACGTGGGGAT | 0.1 |
| ATGAGCACGTGGAAGG | 0.17 |

| Sequence | relative binding free energy [kcal/mol] |
| --- | --- |
| TATTCCACGTGTATTG | -0.01 |
| CTGCGCACGTGTTGGT | -0.14 |
| GTAGGCACGTGGCAAG | -0.18 |
| GCAAACACGTGGGTGT | -0.05 |
| TAAGGCACGTGATTAT | 0.03 |
| AAGGACACGTGGTGCT | 0.02 |
| GGGAGCACGTGGCTTT | -0.05 |
| AGTAGCACGTGGCTTT | -0.21 |
| TGTTTCACGTGTCTAA | 0.27 |
| CTCTGCACGTGTTGTT | -0.09 |
| ATTCTCACGTGGTGGG | 0.19 |
| ATGTTCACGTGTTGTG | 0.26 |
| AGTTTCACGTGGGATC | 0.29 |
| TTGTTCACGTGTTAAT | 0.3 |
| TCATTCACGTGTGTAT | 0.25 |
| GGGAACACGTGCGTGG | -0.03 |
| TATCGCACGTGTTCGG | -0.11 |
| ATCGGCACGTGTGAGG | -0.04 |
| GTAGGCACGTGGTGCA | -0.07 |
| TGTAACACGTGATTGC | 0.22 |
| AGGACCACGTGGGTGG | -0.11 |
| TATAGCACGTGGGGGA | -0.23 |
| GGTGACACGTGGGGGC | -0.01 |
| TACTTCACGTGTTCGG | 0.35 |
| TTGGGCACGTGAAGGT | 0.1 |

| Sequence | relative binding free energy [kcal/mol] |
| --- | --- |
| AGGTTCACGTGCGCGT | 0.05 |
| ATCGGCACGTGAGGTC | 0.12 |
| GTCGTCACGTGGTAGT | 0.1 |
| GGTGACACGTGGGAAT | -0.08 |
| GCGAACACGTGTGGTT | 0.18 |
| ATTTCCACGTGATGGG | 0.3 |
| AGAGGCACGTGTAGCT | -0.1 |
| GGTGTCACGTGCGGCG | 0.1 |
| GTATGCACGTGTAGCT | 0.14 |
| GGGAGCACGTGGGCCT | -0.19 |
| CTTCACACGTGGGTTT | 0.03 |
| AGGGGCACGTGTATAG | -0.06 |
| ATAGGCACGTGATTGT | -0.06 |
| GTTGTCACGTGCCGGT | 0.07 |
| GCAGTCACGTGGAAGG | 0.24 |
| TGGGTCACGTGCGGTC | 0 |
| TTTTTCACGTGAAAGT | 0.44 |
| TCAAACACGTGGGGGA | -0.08 |
| ATGCGCACGTGTGGAG | -0.01 |
| ACTTGCACGTGAGAGG | 0.19 |
| GTCGGCACGTGCTGTA | -0.1 |
| GGGAGCACGTGTTATA | 0.01 |
| TTAAGCACGTGTGTAC | -0.05 |
| GGGAGCACGTGAGGAT | 0.21 |
| CTGTGCACGTGTTTGT | 0.02 |

| Sequence | relative binding free energy [kcal/mol] |
| --- | --- |
| GCTTTCACGTGTGTTG | 0.24 |
| TAGCTCACGTGGGTTG | 0.03 |
| TGTGCCACGTGCGTGT | -0.36 |
| GTAAGCACGTGGGGTG | -0.19 |
| TTGGTCACGTGTGTTC | 0.15 |
| GTGTGCACGTGGTCGG | -0.09 |
| ATTATCACGTGGTAAA | 0 |
| GAGTACACGTGTCGGT | 0.08 |
| ATGTGCACGTGCGTGG | -0.17 |
| GTTGACACGTGAGTCT | 0.22 |
| GGCTGCACGTGTTTGG | 0.14 |
| ATAAACACGTGTTCGT | 0.04 |
| GGGCACACGTGGGTGA | -0.12 |
| GTTGTCACGTGGCACG | 0.06 |
| CAAGGCACGTGTAGGA | 0.04 |
| CTCTGCACGTGGGGTA | -0.22 |
| AAACGCACGTGATGTT | 0.13 |
| ATGTTCACGTGATATT | 0.27 |
| TTTCTCACGTGTTTTG | 0.26 |
| GGCACCACGTGTAGGG | 0.01 |
| TGAGGCACGTGCGAGG | -0.12 |
| TGTTTCACGTGATCCT | 0.41 |
| GGGTTCACGTGGTCGG | 0.32 |
| CTGGGCACGTGAATTG | 0.23 |
| AAGTACACGTGTTAAG | 0.13 |

| Sequence | relative binding free energy [kcal/mol] |
| --- | --- |
| TGATTCACGTGTTATT | 0.13 |
| GGAGACACGTGACGTG | 0.14 |
| GGCCTCACGTGAGGTT | 0.42 |
| TATATCACGTGGATAA | 0.27 |
| TTTGACACGTGGGGGC | -0.18 |
| TGTCACACGTGGTGGT | -0.06 |
| TTCGTCACGTGTGCAT | 0.13 |
| CCGTGCACGTGAGGTG | 0.06 |
| ATCGACACGTGGAGTG | 0.04 |
| CGGGACACGTGCGAGG | 0.13 |
| GGGCTCACGTGTTTGT | 0.15 |
| TTAGGCACGTGCCTGT | -0.08 |
| TGTGGCACGTGTTAGC | -0.09 |
| GGCAGCACGTGGGGTC | -0.17 |
| CACTTCACGTGTTGGT | 0.47 |
| GGGTGCACGTGAAGCG | 0.27 |
| GGCGTCACGTGATGGT | 0.29 |
| ATGGGCACGTGGCAGG | -0.19 |
| GTTTTCACGTGTGGCC | 0.41 |
| GGCGGCACGTGGGTCG | -0.16 |
| TATGTCACGTGGCAGT | 0.03 |
| GAGGGCACGTGAAGGA | 0.29 |
| GGCTACACGTGCTGGG | 0.06 |
| ATATGCACGTGTGAAT | 0.07 |
| CGGCGCACGTGGGGAT | -0.18 |

| Sequence | relative binding free energy [kcal/mol] |
| --- | --- |
| TAGAACACGTGAGTGG | 0.21 |
| CCTTGCACGTGATGTG | 0.19 |
| TTGGTCACGTGTAGCG | 0.24 |
| CGTATCACGTGAGGGT | 0.25 |
| GGTTTCACGTGTAACG | 0.29 |
| TATGTCACGTGTCATG | 0.21 |
| ACATTCACGTGTGAGG | 0.24 |
| GTTGGCACGTGGGACG | -0.16 |
| TTGATCACGTGGGCAC | 0.09 |
| TATATCACGTGGTGAT | 0.17 |
| GTGCGCACGTGCGTGT | -0.22 |
| TGCGACACGTGGTACG | 0.06 |
| GGCGTCACGTGCTGGG | 0.13 |
| AGGCCCACGTGTTGGG | -0.05 |
| AAGTGCACGTGGTCTG | -0.15 |
| GGGGACACGTGCTTTT | 0.06 |
| AAAGGCACGTGGTAGT | -0.22 |
| AGCGGCACGTGTTTAG | -0.08 |
| TTGTTCACGTGATCTG | 0.4 |
| GTCAGCACGTGGGTGT | -0.22 |
| TGTGGCACGTGCGTTA | -0.19 |
